According to PubChem BioAssay AID1159614 (National Center for Advancing Translational Sciences (NCATS), 2016):
Among all 45,000 compounds or so, about 65 (0.1%) were called active. Calls follow the shape of the dose curve; as a rule, active = well fitted activation curve with a large enough effect; inconclusive = small, poorly fitted or top-dose-only effect; inactive = no such curve, though single readings can be large or run the other way. The list shows a part of the results.

molecular target: Galactocerebrosidase (Homo sapiens) (UniProt P54803); assay: A Novel Cell-Based Assay to Identify Small Molecules for B -Galactocerebrosidase; settings: 145M-Twi-hGALC-G270D cells (Twitcher mouse brain line with human GALC G270D), HMU-beta-Gal fluorescence, 48 h; series mostly up to 57.5 µM; activation: at the top concentration; also: 0% is about no effect; nearly all actives have a fitted effect of over 65% in size
Sequence of UniProt P54803 (P54803 whole entry, looked up): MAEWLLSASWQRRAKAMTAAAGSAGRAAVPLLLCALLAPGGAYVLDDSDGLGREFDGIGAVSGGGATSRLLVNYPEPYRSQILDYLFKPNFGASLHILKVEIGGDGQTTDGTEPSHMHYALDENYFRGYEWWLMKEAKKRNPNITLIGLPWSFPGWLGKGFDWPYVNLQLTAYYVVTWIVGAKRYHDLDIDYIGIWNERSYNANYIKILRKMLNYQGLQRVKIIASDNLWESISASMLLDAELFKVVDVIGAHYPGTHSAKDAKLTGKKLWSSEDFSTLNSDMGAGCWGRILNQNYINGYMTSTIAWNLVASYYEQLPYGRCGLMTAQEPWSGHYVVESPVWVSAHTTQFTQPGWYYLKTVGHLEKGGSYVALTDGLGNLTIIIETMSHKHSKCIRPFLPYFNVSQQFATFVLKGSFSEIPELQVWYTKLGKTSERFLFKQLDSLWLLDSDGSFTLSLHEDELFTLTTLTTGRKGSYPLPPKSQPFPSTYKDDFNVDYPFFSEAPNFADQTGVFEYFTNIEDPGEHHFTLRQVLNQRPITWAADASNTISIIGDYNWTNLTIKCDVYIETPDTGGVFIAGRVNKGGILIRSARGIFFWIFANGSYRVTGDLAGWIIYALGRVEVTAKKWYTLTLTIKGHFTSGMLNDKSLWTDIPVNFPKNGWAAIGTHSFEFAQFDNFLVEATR
How it was run: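 Fluorescence readout: HMU-β-gal cleavage by mutant GALC (0.1 mM final, citrate/phosphate pH 5.2 with 1 mg/mL taurocholate), stopped with carbonate/bicarbonate plus Triton X-100. Cells: murine Twitcher 145M-Twi expressing human G270D GALC; qHTS for activators.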

activation, inactive:
CCc1ccc(-n2c(SC(CC)C(=O)N(CC)CC)nc3n[nH]c(C)c3c2=N)cc1 (stereo not drawn) -13.7%
CCOC(=O)N1CCN(S(=O)(=O)N2CCCC(C(=O)NCc3cc(OC)ccc3OC)C2)CC1 (stereo not drawn) 4.94%
CCOCCCNC(=O)C1CCCN(Cc2nc(-c3ccc(CC)cc3)oc2C)C1 (stereo not drawn) -17.3%
COc1ccc(-c2nc(CS(=O)CC(=O)NCc3ccc(F)cc3)c(C)o2)cc1OC (stereo not drawn) -13.7%
Cc1ccc(-c2nc3ccc(Cl)cn3c2Nc2ccc3c(c2)OCCO3)o1 -11%
CCCCOc1ccc(C2=NC(c3ccncc3)=Nc3ccc(Br)cc3N2)cc1 -5.44%
CCc1cccc(CC)c1NC(=O)Cn1nnc2sc(-c3ccccc3)cc2c1=O -7.67%
COc1ccc(N2CCN(C(CNC(=O)CC(C)C)c3ccc4c(c3)OCO4)CC2)cc1 (stereo not drawn) -9.77%
Cc1ccc(/C=C/c2onc(C)c2S(=O)(=O)N2CCC(C(=O)N3CC(C)Oc4ccccc43)CC2)cc1 (stereo not drawn) -10.1%
CCCCCn1c(=O)[nH]c2cc(C(=O)N3CCN(c4ccccc4)CC3)ccc2c1=O -15.8%
COc1ccc(OCC(=O)Nc2ccc(C(=O)OCc3cc(=O)n4nc(C)sc4n3)cc2)cc1 -15.6%
CCOc1ccccc1N(CC)C(=O)Nc1cn(C)c(=O)c2ccccc12 -11.7%
CCCCCC(=O)O[C@]1(C(C)=O)CC[C@H]2[C@@H]3CCC4=CC(=O)CC[C@]4(C)[C@H]3CC[C@@]21C -8.26%
Cc1c(Cl)cccc1-n1ncc(C(=O)N2CCc3ccccc3C2)c1C1CCN(C(=O)OC(C)(C)C)CC1 19.1%
COc1ccccc1NC(=O)CCS(=O)(=O)c1ccc2nc(C)sc2c1 -9.39%
Cc1ccc(C(Nc2ccccn2)c2ccc3cccnc3c2O)cc1 (stereo not drawn) -9.85%
COc1cc(Cl)c(NS(=O)(=O)c2ccc3c(c2)CC(C)N3C(=O)C2CCC2)c(OC)c1 (stereo not drawn) -25%
CC(=O)N1CCC(N(C(=O)Nc2ccc(C)c(F)c2)C(C)C)CC1 -14.7%
Cc1ccc(NC(=O)c2oc3ccccc3c2NC(=O)Cc2cccs2)cc1 -13.7%
CCOc1ccccc1NC(=O)Nc1nnc(N(C)Cc2ccccc2)s1 -17.3%
O=C(CCn1cnc2onc(-c3ccc(F)cc3)c2c1=O)N1CCN(c2ccc(F)cc2)CC1 -12%
CCn1c(C(=O)N2CCCC(C(=O)NCCCOC)C2)cc2sccc21 (stereo not drawn) -25.1%
Cc1ccccc1NC(=O)c1c(NC(=O)C(C)Oc2cccc(Cl)c2)sc2c1CCCC2 (stereo not drawn) -17.2%
CCc1c(C)sc2c1CCN(C(=O)Nc1ccccc1C(F)(F)F)C2c1ccccc1 (stereo not drawn) -17%
COc1cc(Cl)c(C)cc1NC(=O)CCc1c(C)nc2cc(-c3cccc(F)c3)nn2c1C -4.14%
COc1cccc(C(=O)Nc2cc(-c3cn4cccnc4n3)ccc2C)c1OC -14.5%
CCOc1ccc(NC(=O)c2sc3nc4c(cc3c2N)CCCCCC4)cc1 -15.6%
CC1CCN(C(=O)c2c(NC(=O)c3ccccc3F)sc3c2CCC(C(C)(C)C)C3)CC1 (stereo not drawn) -11.9%
Cc1nc2ccccn2c(=O)c1NC(=O)c1c(F)cccc1F -7.96%
O=C(c1cccs1)N(Cc1cccnc1)c1nc2ccc(F)cc2s1 -17.5%
Cc1ccc(OCC(=O)Nc2ccccc2C(=O)OCc2cc(=O)n3nc(C4CC4)sc3n2)cc1 25.5%
CCCCNS(=O)(=O)c1ccc2nc(-c3cccnc3)cc(C(=O)NCCC)c2c1 -5.57%
Oc1ccc(-c2nc3ccccn3c2Nc2ccc3c(c2)OCCO3)cc1 -18.2%
CNCCCC12CCC(c3ccccc31)c1ccccc12 -12.6%
CCn1cc(S(=O)(=O)c2ccc(OC)cc2)c(=O)c2cc(F)c(N3CCC(C)CC3)cc21 -11.4%
Cc1ccc(CN(Cc2ccco2)C(=O)COc2c(C)cc(C)cc2C)cc1 -18.4%
CCCN(CCC)CCCNC(=O)C1CCC(CNS(=O)(=O)c2cccc3nsnc23)CC1 (stereo not drawn) -24%
CCOc1ccc(CNC(=O)C2CCN(S(=O)(=O)N3CCCCC3)CC2)cc1 -3.47%
NCCNc1cccc2ccccc12 -17.5%
NCCCCCc1nnc(SCc2ccc(F)cc2)o1 -5.56%
COCCNC(=O)CSc1c2c(nc3cc(Cl)ccc13)CCCC2 -8.9%
CCCc1nn2c(=O)cc(COC(=O)c3cccc(NC(=O)CCc4ccccc4)c3)nc2s1 -4.55%
COCCCNC(=O)c1ccc2nc(Cc3ccc(OC)cc3)oc2c1 -21.6%
Fc1ccccc1Oc1ncnc2c1oc1ccccc12 -10.2%
Clc1ccc(-c2csc(=Nc3ccccc3)n2Cc2ccc3c(c2)OCO3)cc1 -0.592%
COc1ccc(NC(=O)CSc2nc3ccccc3[nH]2)cc1 -5.18%
Cc1cccc(OCc2nc(C#N)c(NCc3ccccc3Cl)o2)c1 -13.8%
CCOC(=O)C1CCN(C(=O)CSc2n[nH]c(-c3ccccc3)n2)CC1 -5.62%
Cc1ccc2nc(COc3ccc(NC(=O)COc4ccccc4F)cc3)cc(=O)n2c1 -1.32%
CC(=O)Nc1nonc1-c1nnc(SCc2ccc(F)cc2)n1C -8.86%
COc1ccc(NC(=O)COCc2cc(-c3ccco3)on2)cc1 -19.1%
CCCCSc1nnc2n(-c3cccc(C)c3)c(=O)c3c4c(sc3n12)CCCC4 -13.1%
COc1cc2c(=O)c(C(=O)c3ccc(C)c(C)c3)cn(Cc3ccccc3)c2cc1OC -15.9%
Cc1cccc(N2CCN(C(=O)c3ccc4c(c3)N(Cc3ccccc3F)C(=O)c3ccccc3S4=O)CC2C)c1 (stereo not drawn) -10.2%
Cc1cc(C)c2nc(NC(=O)c3ccc(S(=O)(=O)N4CCCC4)cc3)sc2c1 4.29%
COc1ccc(-c2cc3nc(C)c(CCC(=O)N4CCN(c5ccccc5)CC4)c(C)n3n2)c(OC)c1 -15.8%
Cc1ccc(C)c(N2CCN(C(=O)Cn3c(=O)c4cccn4c4ccc(F)cc43)CC2)c1 -7.34%
CCCCC(CC)CNC(=O)CCCc1nnc2n(CCC)c(=O)c3sccc3n12 (stereo not drawn) 2.76%
Cc1ccc(NC(=O)CSCn2nnc3c(=O)[nH]c(Cc4ccc(F)cc4)nc32)c(C)c1 -21.3%
CCOCCCNC(=O)Cn1nc(C)n2c(cc3cc(C)ccc32)c1=O -1.28%
CCOc1cc(C2C(C(=O)OC)=C(C)NC3=C2C(=O)c2ccccc23)c(Br)cc1OC (stereo not drawn) -7.85%
O=C(COc1ccccc1Cl)Nc1nc2c(s1)CCCC2 -2.14%
CCCCN(CCCNC(=O)CN1N=C(c2ccccc2)CCC1=O)c1ccccc1 -3.47%
N#C/C(=C\c1ccc(-c2ccccc2C(=O)O)o1)c1nc2ccccc2[nH]1 -24.5%
O=C(Cn1nc2c(cc1=O)CCCC2)Nc1ccc(F)cc1F 0.954%
COc1ccc(CCNC(=O)c2c(O)nc3cc(C)ccn3c2=O)cc1OC -5.61%
Cc1cc(-c2ccc(C)c(S(=O)(=O)N3CCCC(C)C3)c2)on1 (stereo not drawn) -21%
O=C(Cn1c(=O)n(Cc2ccco2)c(=O)c2ccc(C(=O)NC3CCCC3)cc21)Nc1ccc(F)cc1 -15.8%
COc1ccc(-n2nc(C(=O)NCCc3ccc(Cl)cc3)c3c4ccccc4n(C)c3c2=O)cc1Cl -14.6%
Cc1cc(C)n(CC(=O)Nc2ccc(F)c(F)c2)c(=O)c1C#N -9.43%
COc1ccc(C)cc1NC(=O)C(=O)NCCc1sc(-c2ccc(Cl)cc2)nc1C -9.84%
CCOC(=O)c1c(NC(C)=O)c2c3c(sc2n1Cc1nc(-c2ccc(Cl)cc2)oc1C)CCCC3 -1.83%
CCN(CC)C(=O)C1=C(C)Nc2nc3ccccc3n2C1c1ccc(Br)cc1 (stereo not drawn) -13.8%
CCc1noc(-c2ccc(NC(C)c3ccccc3)c([N+](=O)[O-])c2)n1 (stereo not drawn) -8.21%
CC(=O)c1cccc(NC(=O)CCS(=O)(=O)c2cc3c(cc2C)NC(=O)CO3)c1 -8.94%
COc1ccc(N2CCN(C(=O)Cc3coc4ccc(C)cc34)CC2)cc1 -7.16%
CCc1ccc(CNC(=O)c2ccc(CSc3nc4ccncc4n3Cc3ccc(OC)cc3)cc2)cc1 -7.24%
O=S(=O)(Nc1cccc(Cl)c1)c1ccc2[nH]c3c(c2c1)CCCCCC3 -2.79%
CCOc1ccc(C(=O)Nc2c(C(=O)c3ccccc3)oc3ccccc23)cc1 -12.3%
CCC(CC)C(=O)Nc1cc(-c2cn3cccnc3n2)ccc1OC 10%
CCOC(=O)c1c(S(=O)(=O)N2CCC(C(=O)N3CCN(c4cccc(C)c4C)CC3)CC2)c(C)n(C)c1C -12.5%
CCOc1ccccc1C1N=C(N)Nc2nc3ccccc3n21 (stereo not drawn) -12.9%
Cc1nc(N2CCCC2)c2c(C(=O)Nc3ccc(C)c(Cl)c3)c(C)oc2n1 -22.7%
Cc1ccccc1-c1nnc(CN2CCN(c3cc(Cl)ccc3C)CC2)o1 -0.656%
CCOC(=O)N1CCC(NC(=O)c2ccc3c(c2)N(Cc2cccc(C)c2)C(=O)c2ccccc2S3(=O)=O)CC1 -4.18%
COC(=O)c1c(C)oc2ccc(N(C(=O)c3ccncc3)S(=O)(=O)c3cc(C)c(C)cc3C)cc12 -21.3%
COc1ccc(C(CC(=O)Nc2ccc(C)cn2)N2Cc3ccccc3C2=O)cc1OC (stereo not drawn) -21.2%
Cc1ccc(Nc2cc(C)nc3nc(Cc4ccc(Cl)cc4)nn23)cc1 -13%
CCC(=O)N1CCc2cc(Br)cc(S(=O)(=O)CCC(=O)Nc3cccc(CC)c3)c21 -9.3%
Cc1ccc(-c2ccc(=O)n(Cc3ccc(F)cc3)n2)cc1 -14.1%
COc1cccc(CNC(=O)Cn2c(=O)oc3cc(S(=O)(=O)N4CCCC4)ccc32)c1 -5.85%
COc1cccc(CNC(=O)c2nnn(CC(=O)Nc3cc(Cl)ccc3C)c2N)c1 -0.472%
O=S(=O)(c1ccc(F)cc1)N1CCC(Oc2ccc(-n3cnnn3)cc2)CC1 -16.1%
CCCN(CCC)CCCNC(=O)c1cc2c(=O)oc3ccc(C)cc3c2s1 0.336%
Cc1ccc(CN2CCSc3ccc(C(=O)Nc4ccc(Cl)cc4)cc32)cc1 -11%
CC(NC(=O)C1(c2cccs2)CCOCC1)c1ccccc1 (stereo not drawn) -20.6%
CCn1cc(C(=O)N2CCN(c3cc(Cl)ccc3C)CC2)c2cc(OC)c(OC)cc2c1=O -17.2%
CCOc1ccc(CCNC(=O)CCCc2cc(-c3ccc(OCC)cc3)on2)cc1 -4.93%
